# Experimental data as given in publication PMC4336329 (PLoS ONE, 2015).
# The whole screen tested about 310,000 compounds, of which about 14,000 (4.5%) showed an effect of 50% or more. The effect is printed as a negative number. The list shows a part of the results.
# Biological target: human ether-à-go-go-related gene (hERG) potassium channel (human, UniProt Q12809)
# Assay: primary screen, population patch clamp on CHO cells stably expressing hERG
# 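Note: peak tail current of the secondary pulse compared with the same well before compound.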
# Sequence of human ether-à-go-go-related gene (hERG) potassium channel (Q12809 whole entry, looked up): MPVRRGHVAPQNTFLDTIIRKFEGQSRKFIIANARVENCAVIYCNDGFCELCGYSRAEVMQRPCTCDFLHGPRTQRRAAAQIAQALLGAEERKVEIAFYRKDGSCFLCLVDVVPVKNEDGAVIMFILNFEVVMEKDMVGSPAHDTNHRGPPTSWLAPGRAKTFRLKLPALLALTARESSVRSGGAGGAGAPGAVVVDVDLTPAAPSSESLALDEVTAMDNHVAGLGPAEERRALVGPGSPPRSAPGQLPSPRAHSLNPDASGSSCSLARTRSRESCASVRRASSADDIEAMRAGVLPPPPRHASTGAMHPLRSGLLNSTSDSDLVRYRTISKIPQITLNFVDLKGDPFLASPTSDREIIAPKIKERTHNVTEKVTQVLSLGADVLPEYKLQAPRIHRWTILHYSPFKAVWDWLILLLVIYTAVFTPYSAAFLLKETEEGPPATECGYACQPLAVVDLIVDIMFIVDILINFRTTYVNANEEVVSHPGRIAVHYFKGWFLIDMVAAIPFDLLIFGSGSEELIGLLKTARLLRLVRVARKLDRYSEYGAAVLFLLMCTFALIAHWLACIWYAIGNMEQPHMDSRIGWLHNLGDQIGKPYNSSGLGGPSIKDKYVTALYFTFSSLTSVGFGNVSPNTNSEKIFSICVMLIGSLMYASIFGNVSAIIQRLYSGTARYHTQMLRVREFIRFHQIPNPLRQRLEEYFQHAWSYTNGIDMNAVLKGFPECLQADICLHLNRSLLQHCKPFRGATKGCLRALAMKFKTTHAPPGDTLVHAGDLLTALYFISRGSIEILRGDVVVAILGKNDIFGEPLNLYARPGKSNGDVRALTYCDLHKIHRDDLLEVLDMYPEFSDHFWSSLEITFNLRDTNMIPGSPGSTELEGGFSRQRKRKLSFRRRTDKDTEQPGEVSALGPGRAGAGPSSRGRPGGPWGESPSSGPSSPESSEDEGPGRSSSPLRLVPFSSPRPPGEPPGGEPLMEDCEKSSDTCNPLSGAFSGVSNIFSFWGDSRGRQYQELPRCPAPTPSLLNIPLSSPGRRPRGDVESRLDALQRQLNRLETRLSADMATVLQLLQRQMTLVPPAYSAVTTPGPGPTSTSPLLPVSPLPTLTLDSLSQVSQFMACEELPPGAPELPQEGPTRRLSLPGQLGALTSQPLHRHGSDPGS
row,Compound,"hERG current change (%, negative = inhibition) at 10uM [%]"
1,COc1ccc(N=c2scc(C)n2CCCN2CCCC2=O)cc1,-18.9
2,CC(C)(C)NC(=O)COC(=O)c1ccccc1C(=O)c1ccccc1,39.7
3,O=C(NCc1ccccc1)N1CCC(CO)(CCc2ccccc2)CC1,-38
4,COc1ccccc1NS(=O)(=O)c1cccc(C(=O)NN=C2CCCC2)c1,0.33
5,O=S(=O)(c1ccccc1)N1CCN(c2ncccn2)CC1,-4.57
6,O=C(N/N=C/c1sc(N2CCCCC2)nc1-c1cccs1)C1CC1,-7.28
7,CN(C)C1=NC[C@H](Cc2ccccc2)N1CCCCc1ccccc1,-71
8,CCOc1ccc(S(=O)(=O)N2CCC(C(=O)N3CCCC3)CC2)cc1C,3.91
9,O=C(COC(=O)c1cccc(C(F)(F)F)c1)NCc1ccccc1,19.2
10,Cn1cc(CN2CCCC(CO)(Cc3ccccc3)C2)cn1 (stereo not shown),4.27
11,O=C(Cn1ncnn1)OCc1ccccc1Cl,9
12,Cc1cc(NC(=O)NC(=O)c2ccc(F)cc2F)n[nH]1,22.9
13,O=C(COC(=O)C1CCN(c2ccc(C(F)(F)F)cn2)CC1)c1ccc(Cl)cc1,-26.6
14,O=C(NCc1ccco1)c1ccc(COCC(F)(F)F)cc1,-18.4
15,CCCc1cc(=O)[nH]c(SCC(=O)NC2CCCc3ccccc32)n1 (stereo not shown),0.372
16,COc1cccc(NC(=O)[C@@H](NC(=O)N2C[C@H]3C[C@@H](C2)c2cccc(=O)n2C3)C(C)C)c1,20.6
17,Cc1ccccc1NC(=O)c1ccccc1NC(=O)c1cccs1,11.6
18,Cc1cc(C)n2cc(CSc3nnnn3-c3ccccc3)nc2n1,-56.3
19,O=C(CSc1cn(Cc2cccc(F)c2)c2ccccc12)NCc1ccc(F)cc1,9.86
20,Cc1cc(C)n2nc(SCc3ccc(C#N)cc3)nc2n1,-11.4

row,Compound,"hERG current change (%, negative = inhibition) at 10uM [%]"
1,COc1ccccc1N1CCN(C(c2cccs2)c2nnnn2C2CCCC2)CC1 (stereo not shown),7.66
2,CC(=O)c1sc(N/N=C\c2ccccc2O)nc1C,14.8
3,O=C(NC(Cc1c[nH]c2ccccc12)C(=O)NCc1ccc(F)cc1)OCc1ccccc1 (stereo not shown),4.2
4,COc1ccc(/C=C2\SC(=O)N(CCC(=O)N3CCCCC3)C2=O)cc1OC,15.7
5,O=C(NCc1ccco1)C1(S(=O)(=O)c2ccc(Cl)cc2)CC1,1.22
6,Cc1csc(NC(=O)CCn2c(=O)oc3ccccc32)n1,-6.75
7,COC(=O)CSc1cc([N+](=O)[O-])ccc1NC(=O)OC,28.8
8,Cc1ccc(NC(=S)N(CCN2CCOCC2)Cc2ccccc2F)cc1,-2.88
9,CC(C)(O)CNC(=O)C(Cc1ccccc1)N1C(=O)c2ccccc2C1=O (stereo not shown),25.7
10,Cc1cc(C(=O)NC2CCCc3c2cnn3-c2ccc(C(C)(C)C)cc2)n[nH]1 (stereo not shown),-5.84
11,COC(=O)C(C)Oc1ccc(Cl)c(CN2OCC(C)(C)C2=O)c1 (stereo not shown),5.26
12,CCCCC(=O)Nc1ncc(Br)s1,-7.58
13,Cc1cc([N+](=O)[O-])nn1CC(=O)N/N=C/c1ccccc1F,-5.15
14,CC(=O)c1ccc(N2C(=NC(=O)CCC3CCCC3)SC3CS(=O)(=O)CC32)cc1 (stereo not shown),15.4
15,CCCNC(=O)N1[C@H]2CC[C@@H]1C(C(=O)OC)=C(c1ccc(-c3ccccc3)c(F)c1)C2,-3.36
16,CCN1CC(O)=C(c2nc3ccccc3s2)C1=N,3.62
17,O=[N+]([O-])c1cc(S(=O)(=O)N2CCCC2)ccc1NCCCN1CCOCC1,-22.7
18,O=C(CCCCn1c(=O)c2ccccc2n(Cc2ccc(F)cc2Cl)c1=O)NCc1ccco1,-5.07
19,O=C(CN1CCSCC1)N/N=C/c1cccc(Cl)c1,-2.93
20,CC(C)C(NC(=O)CSCc1ccc([N+](=O)[O-])cc1)C(C)C,-40.2

row,Compound,"hERG current change (%, negative = inhibition) at 10uM [%]"
1,CC1CC(C)CN(S(=O)(=O)c2cc3c4c(c2)CCC(=O)N4CCC3)C1 (stereo not shown),-5.2
2,O=C(CCSCc1ccccc1Cl)N1CCN(c2cccc(Cl)c2)CC1,4.72
3,CCCOC1CCCN(C(=O)c2cc(COc3ccc(-n4cncn4)cc3)on2)C1 (stereo not shown),-79
4,Cc1ccc(-c2n[nH]c(Cc3ccccc3)n2)cc1,-1.91
5,CCOc1ccc(CN2CCN(Cc3cccn3-c3nccs3)CC2CCO)cc1 (stereo not shown),-76.1
6,C=CCN(CC=C)CCOc1ccccc1[N+](=O)[O-].O=C(O)C(=O)O,-14.4
7,CCCNC(=O)N1CCC(C(=O)c2ccc(Cl)cc2)CC1,-23.6
8,COc1ccc(/C=C2/SC(=O)N(CCNC(=O)C3COc4ccccc4O3)C2=O)cc1 (stereo not shown),-25.7
9,CS(=O)(=O)Nc1ccc(C2=NN(C(=O)c3ccco3)C(c3ccccc3)C2)cc1 (stereo not shown),-77.6
10,CCOC(=O)c1c(C)[nH]c(C(=O)COC(=O)CN2C(=O)C3CCCCC3C2=O)c1C (stereo not shown),-16.8
11,O=S1(=O)CCOC[C@H](c2ccccc2)N1Cc1cccc(F)c1,3.71
12,Cc1cc2occ(CC(=O)NCc3cccs3)c2cc1C(C)C,-23.3
13,Cc1ccc2nc(C)c(C(=O)NN=C3CCCCCC3)n2c1,15.4
14,Cc1cccc(C(=O)NC(C)C2CC3CCC2C3)c1 (stereo not shown),-8.73
15,COC(=O)c1sccc1NC(=O)Nc1cc(C)ccc1C,4.5
16,O=C(COc1cccc2c1CCNC2=O)Nc1cccc(F)c1,9.76
17,COc1ccc(O)c(C=Nc2cc(NC(C)=O)c(Cl)cc2Cl)c1,2.95
18,CCN(CC)c1cc(Oc2ccccc2)ncn1,-9.54
